# Results taken from the supplement of paper PMC10037445.
# In all, about 2,900 compounds were measured (“NF-kB SEAP reporter activity, fold change vs agonist alone”: median about 0.99, highest 2% from about 2.6 on). This is one part of the list.
# Assays:
# [1] = tested on: RAW-Dual; test: NF-kB SEAP reporter activity, fold change vs agonist alone; higher = enhanced NF-kB activity
# Method in brief: (§1)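 Supernatant from RAW-Dual macrophages was read after 20 hours for IRF by QuantiLuc luminescence and for NF-κB by QuantiBlue absorbance at 620 nm. The cells (50,000 cells/well in DMEM, 384-well plates, 37 °C, 5% CO2) had received 50 nL of library stock by pin tool and, 1 h later, a PRR agonist. Reporter activity is expressed relative to agonist-alone wells as fold change, and wells were flagged cytotoxic if IncuCyte confluency was under 70% of agonist controls in both mask sets.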
# [2] = tested on: RAW-Dual; test: NF-kB SEAP reporter activity, fold change vs agonist alone; cytotoxicity flag (confluency mask): cytotoxic (confluency <70% of control); higher = enhanced NF-kB activity
# Method in brief: as §1
# [3] = tested on: RAW-Dual; test: NF-kB SEAP reporter activity, fold change vs agonist alone; cytotoxicity flag (confluency mask): not cytotoxic; higher = enhanced NF-kB activity
# Method in brief: as §1
# [4] = library stock concentration (final ~1000-fold dilution): 10 mM, cytotoxicity flag (confluency mask): cytotoxic (confluency <70% of control), agonist: Imiquimod (TLR7) […]
# [5] = library stock concentration (final ~1000-fold dilution): 10 mM, cytotoxicity flag (confluency mask): cytotoxic (confluency <70% of control), agonist: MPLA (TLR4) […]
# [6] = agonist: ODN 1826 (TLR9) 0.5 ug/mL
# [7] = agonist: Pam2CSK4 (TLR2/6) 0.1 ug/mL
# [8] = agonist: Pam3CSK4 (TLR2/1) 0.1 ug/mL
# [9] = library stock concentration (final ~1000-fold dilution): 2 mM, cytotoxicity flag (confluency mask): not cytotoxic, agonist: Imiquimod (TLR7) […]
# [10] = library stock concentration (final ~1000-fold dilution): 2 mM, cytotoxicity flag (confluency mask): not cytotoxic, agonist: MPLA (TLR4) […]
# [11] = library stock concentration (final ~1000-fold dilution): 10 mM, cytotoxicity flag (confluency mask): not cytotoxic, agonist: Imiquimod (TLR7) […]
# [12] = library stock concentration (final ~1000-fold dilution): 10 mM, cytotoxicity flag (confluency mask): not cytotoxic, agonist: MPLA (TLR4) […]
smiles,measurement,setting,value
COc1cc2c(Oc3ccc4[nH]c(C)cc4c3F)ccnc2cc1OCC1(N)CC1.Cl.Cl,NF-kB SEAP reporter activity,[1]; [4],1.53
same,NF-kB SEAP reporter activity,[1]; [5],1.89
COc1cc2c(Oc3ccc4[nH]c(C)cc4c3F)ccnc2cc1OCC1(N)CC1.Cl.Cl (library stock concentration (final ~1000-fold dilution): 10 mM),NF-kB SEAP reporter activity,[2]; agonist: LPS (TLR4) 0.1 ug/mL,1.7
same,NF-kB SEAP reporter activity,[2]; [6],0.29
same,NF-kB SEAP reporter activity,[2]; [7],1.17
same,NF-kB SEAP reporter activity,[2]; [8],1.74
C#Cc1cccc(Nc2ncnc3cc(OCCOC)c(OCCOC)cc23)c1.Cl (library stock concentration (final ~1000-fold dilution): 2 mM),NF-kB SEAP reporter activity,[3]; agonist: LPS (TLR4) 0.1 ug/mL,2.26
same,NF-kB SEAP reporter activity,[3]; [6],0.972
same,NF-kB SEAP reporter activity,[3]; [7],0.853
same,NF-kB SEAP reporter activity,[3]; [8],1.1
C#Cc1cccc(Nc2ncnc3cc(OCCOC)c(OCCOC)cc23)c1.Cl,NF-kB SEAP reporter activity,[1]; [9],0.949
same,NF-kB SEAP reporter activity,[1]; [10],1.39
COc1ccc(-c2cc(=O)c3c(O)cc(OC)cc3o2)cc1 (library stock concentration (final ~1000-fold dilution): 10 mM),NF-kB SEAP reporter activity,[3]; agonist: LPS (TLR4) 0.1 ug/mL,0.876
same,NF-kB SEAP reporter activity,[3]; [6],0.967
same,NF-kB SEAP reporter activity,[3]; [7],0.962
same,NF-kB SEAP reporter activity,[3]; [8],0.955
COc1ccc(-c2cc(=O)c3c(O)cc(OC)cc3o2)cc1,NF-kB SEAP reporter activity,[1]; [11],0.972
same,NF-kB SEAP reporter activity,[1]; [12],1.1
O=c1c2ccccc2nc2n1CCc1c-2[nH]c2ccccc12 (library stock concentration (final ~1000-fold dilution): 10 mM),NF-kB SEAP reporter activity,[3]; agonist: LPS (TLR4) 0.1 ug/mL,1.5
same,NF-kB SEAP reporter activity,[3]; [6],1.04
same,NF-kB SEAP reporter activity,[3]; [7],0.926
same,NF-kB SEAP reporter activity,[3]; [8],1.18
O=c1c2ccccc2nc2n1CCc1c-2[nH]c2ccccc12,NF-kB SEAP reporter activity,[1]; [11],1.33
same,NF-kB SEAP reporter activity,[1]; [12],1.19
O=C(/C=C/C=C/c1ccc2c(c1)OCO2)N1CCCCC1 (library stock concentration (final ~1000-fold dilution): 10 mM),NF-kB SEAP reporter activity,[3]; agonist: LPS (TLR4) 0.1 ug/mL,0.958
same,NF-kB SEAP reporter activity,[3]; [6],0.995
same,NF-kB SEAP reporter activity,[3]; [7],1
same,NF-kB SEAP reporter activity,[3]; [8],0.978
O=C(/C=C/C=C/c1ccc2c(c1)OCO2)N1CCCCC1,NF-kB SEAP reporter activity,[1]; [11],0.975
same,NF-kB SEAP reporter activity,[1]; [12],1.05
CN(C)CCCn1cc(C2=C(c3c[nH]c4ccccc34)C(=O)NC2=O)c2ccccc21,NF-kB SEAP reporter activity,[1]; [4],1.13
same,NF-kB SEAP reporter activity,[1]; [5],1.59
CN(C)CCCn1cc(C2=C(c3c[nH]c4ccccc34)C(=O)NC2=O)c2ccccc21 (library stock concentration (final ~1000-fold dilution): 10 mM),NF-kB SEAP reporter activity,[2]; agonist: LPS (TLR4) 0.1 ug/mL,0.346
same,NF-kB SEAP reporter activity,[2]; [6],0.491
same,NF-kB SEAP reporter activity,[2]; [7],0.833
same,NF-kB SEAP reporter activity,[2]; [8],0.564
CNC(C)C(=O)NC(C(=O)N1CCCC1c1nc(C(=O)c2ccc(F)cc2)cs1)C1CCCCC1 (configuration not stated) (library stock concentration (final ~1000-fold dilution): 10 mM),NF-kB SEAP reporter activity,[2]; agonist: LPS (TLR4) 0.1 ug/mL,0.436
same,NF-kB SEAP reporter activity,[2]; [6],0.764
same,NF-kB SEAP reporter activity,[2]; [7],0.902
same,NF-kB SEAP reporter activity,[2]; [8],0.517
CNC(C)C(=O)NC(C(=O)N1CCCC1c1nc(C(=O)c2ccc(F)cc2)cs1)C1CCCCC1 (configuration not stated),NF-kB SEAP reporter activity,[1]; [4],1.16
same,NF-kB SEAP reporter activity,[1]; [5],0.714
O=C(Nc1cccc(Nc2ncc(Br)c(NCCc3cnc[nH]3)n2)c1)N1CCCC1,NF-kB SEAP reporter activity,[1]; [11],0.673
same,NF-kB SEAP reporter activity,[1]; [12],0.889
O=C(Nc1cccc(Nc2ncc(Br)c(NCCc3cnc[nH]3)n2)c1)N1CCCC1 (library stock concentration (final ~1000-fold dilution): 10 mM),NF-kB SEAP reporter activity,[3]; agonist: LPS (TLR4) 0.1 ug/mL,0.575
same,NF-kB SEAP reporter activity,[3]; [6],0.568
same,NF-kB SEAP reporter activity,[3]; [7],0.268
same,NF-kB SEAP reporter activity,[3]; [8],0.35
CCCCC(=O)N(Cc1ccc(-c2ccccc2-c2nn[nH]n2)cc1)C(C(=O)O)C(C)C.CCOC(=O)C(C)CC(Cc1ccc(-c2ccccc2)cc1)NC(=O)CCC(=O)O (configuration not stated),NF-kB SEAP reporter activity,[1]; [11],1.27
same,NF-kB SEAP reporter activity,[1]; [12],1.01
CCCCC(=O)N(Cc1ccc(-c2ccccc2-c2nn[nH]n2)cc1)C(C(=O)O)C(C)C.CCOC(=O)C(C)CC(Cc1ccc(-c2ccccc2)cc1)NC(=O)CCC(=O)O (configuration not stated) (library stock concentration (final ~1000-fold dilution): 10 mM),NF-kB SEAP reporter activity,[3]; agonist: LPS (TLR4) 0.1 ug/mL,1.08
same,NF-kB SEAP reporter activity,[3]; [6],1.9
same,NF-kB SEAP reporter activity,[3]; [7],1.23
same,NF-kB SEAP reporter activity,[3]; [8],1.19
C=C(C)C1CCC2(C)CCC3(C)C(CCC4C5(C)CCC(O)C(C)(C)C5CCC43C)C12 (configuration not stated),NF-kB SEAP reporter activity,[1]; [9],1
same,NF-kB SEAP reporter activity,[1]; [10],1.05
C=C(C)C1CCC2(C)CCC3(C)C(CCC4C5(C)CCC(O)C(C)(C)C5CCC43C)C12 (configuration not stated) (library stock concentration (final ~1000-fold dilution): 2 mM),NF-kB SEAP reporter activity,[3]; agonist: LPS (TLR4) 0.1 ug/mL,1.25
same,NF-kB SEAP reporter activity,[3]; [6],0.949
same,NF-kB SEAP reporter activity,[3]; [7],1.06
same,NF-kB SEAP reporter activity,[3]; [8],0.917
CC(C)=CCC/C(C)=C/CC/C(C)=C/CSc1ccccc1C(=O)O (library stock concentration (final ~1000-fold dilution): 10 mM),NF-kB SEAP reporter activity,[3]; agonist: LPS (TLR4) 0.1 ug/mL,0.724
same,NF-kB SEAP reporter activity,[3]; [6],0.671
same,NF-kB SEAP reporter activity,[3]; [7],0.914
same,NF-kB SEAP reporter activity,[3]; [8],0.68
CC(C)=CCC/C(C)=C/CC/C(C)=C/CSc1ccccc1C(=O)O,NF-kB SEAP reporter activity,[1]; [11],0.904
same,NF-kB SEAP reporter activity,[1]; [12],0.878
Br.CN(C)CCCC1(c2ccc(F)cc2)OCc2cc(C#N)ccc21 (configuration not stated) (library stock concentration (final ~1000-fold dilution): 10 mM),NF-kB SEAP reporter activity,[3]; agonist: LPS (TLR4) 0.1 ug/mL,1.15
same,NF-kB SEAP reporter activity,[3]; [6],0.889
same,NF-kB SEAP reporter activity,[3]; [7],0.786
same,NF-kB SEAP reporter activity,[3]; [8],0.857
Br.CN(C)CCCC1(c2ccc(F)cc2)OCc2cc(C#N)ccc21 (configuration not stated),NF-kB SEAP reporter activity,[1]; [12],1.01
O=C1C(O)=C(O)OC1C(O)CO (configuration not stated) (library stock concentration (final ~1000-fold dilution): 10 mM),NF-kB SEAP reporter activity,[3]; agonist: LPS (TLR4) 0.1 ug/mL,1.19
same,NF-kB SEAP reporter activity,[3]; [6],1.12
same,NF-kB SEAP reporter activity,[3]; [7],1.02
same,NF-kB SEAP reporter activity,[3]; [8],1.12
O=C1C(O)=C(O)OC1C(O)CO (configuration not stated),NF-kB SEAP reporter activity,[1]; [11],0.771
same,NF-kB SEAP reporter activity,[1]; [12],0.985
